# The inconclusive results got no clear call from the source; some entries with a clear call stand among them for comparison. For some of these results: Potencies of inconclusive entries are doubtful fits and often do not repeat. Active and inactive are the calls of the source. Unless noted, calls come from the whole dose curve; as a rule, active = well fitted curve in the direction sought with a large enough effect in the repeat runs; inconclusive = weak or mixed curves; inactive = no such curve, though single readings can be large; an effect the other way counts as inactive or inconclusive.
# Key:
# [1] = qHTS assay for small molecule agonists of the antioxidant response element (ARE) signaling pathway (AID 743202; active = well fitted activation curve with a large enough effect in the signal ratio in the repeat runs, not every such curve was filed as active; inconclusive = weak or mixed curves, or effect the other way; inactive = no such curve, though single readings can be large or run the other way; the % refers to the signal ratio; note: potency is the fitted concentration of half-maximal effect; for activation: % is set by controls: 0 for no effect and ±100 for the full control effect); conditions: HepG2 ARE-bla reporter, beta-lactamase FRET, 16 h; activation: at 73.3 µM (top of the series) unless noted
# Method in brief: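 Steps: seed ARE-bla HepG2 cells (2,000/well); incubate 5 h at 37 C; add compounds by pin tool; incubate 16 h at 37 C; add FRET substrate; read fluorescence after 2 h at RT.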
# [2] = qHTS assay for small molecule activators of the heat shock response signaling pathway (AID 743210; active = well fitted activation curve with a large enough effect in the signal ratio in the repeat runs, with a control signal flat, not every such curve was filed as active; inconclusive = weak or mixed curves; the % refers to the signal ratio; note: potency is the fitted concentration of half-maximal effect); conditions: HeLa HSE-bla reporter, beta-lactamase ratio, 5 h; activation: at 62.6 µM (top of the series) unless noted
# Method in brief: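 Activation of heat shock element-controlled beta-lactamase expression is measured in HeLa cells by LiveBLAzer FRET fluorescence, with compound exposure lasting 5 h at 37 C and substrate loading 2.5 h at room temperature.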
# [3] = qHTS assay to identify small molecule antagonists of the peroxisome proliferator-activated receptor delta (PPARd) signaling pathway - cell viability counter screen (AID 743213); conditions: PPARd-bla HEK293H viability, CellTiter-Glo luminescence, 17 h; viability change, negative = cytotoxic: at 62 µM (top of the series) unless noted; note: nearly all actives have a fitted effect of over 50% in size; note: potency is the fitted concentration of half-maximal effect
# Method in brief: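 Cytotoxicity counter screen: CellTiter-Glo luminescence read 30 min after addition, in the same wells as the reporter assay. There, PPARd UAS-bla HEK293H cells (3000/well) were treated 17 h at 37 C with compound and 300 nM L165041.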
# [4] = target: Vitamin D3 receptor (Homo sapiens) (UniProt P11473); experiment: qHTS assay to identify small molecule antagonists of the vitamin D receptor (VDR) signaling pathway (AID 743223; active = well fitted inhibition curve with a large enough effect in the signal ratio in the repeat runs, not every such curve was filed as active; inconclusive = weak or mixed curves, or effect the other way; inactive = no such curve, though single readings can be large or run the other way; the % refers to the signal ratio; note: potency is the fitted concentration of half-maximal effect; for activity change, negative = inhibition: % is set by controls: 0 for no effect and ±100 for the full control effect); conditions: VDR-UAS-bla HEK293T, beta-lactamase FRET ratio, 16 h
# Method in brief: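 Quantitative HTS in VDR-bla reporter cells stimulated with 1alpha,25-dihydroxyvitamin D3, 3 nM final. Compound exposure 16 h, 37C, 5% CO2. Read-out: beta-lactamase FRET substrate fluorescence, 2 h RT.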
# [5] = qHTS assay for small molecule activators of the heat shock response signaling pathway - cell viability counter screen (AID 743209); conditions: HSE-bla HeLa viability, CellTiter-Glo luminescence, 5 h; activity change, negative = cytotoxicity: at 62.6 µM (top of the series); note: potency is the fitted concentration of half-maximal effect; nearly all actives have a fitted effect of over 50% in size
# Method in brief: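 Cytotoxicity counter screen run in the same wells as the heat-shock bla reporter assay: HeLa HSE-bla cells, 5 h compound exposure at 37 C, viability read by CellTiter-Glo luminescence.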
# [6] = target: Peroxisome proliferator-activated receptor delta (Homo sapiens) (UniProt Q03181); experiment: qHTS assay to identify small molecule antagonists of the peroxisome proliferator-activated receptor delta (PPARd) signaling pathway (AID 743215; active = well fitted inhibition curve with a large enough effect in the signal ratio in the repeat runs, not every such curve was filed as active; inconclusive = weak or mixed curves, or effect the other way; inactive = no such curve, though single readings can be large or run the other way; the % refers to the signal ratio;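 note: cells stimulated with agonist L165041 at 300 nM final during compound exposure; % is set by controls: 0 for no effect and ±100 for the full control effect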); conditions: HEK293H PPARd-UAS-bla, beta-lactamase FRET ratio, antagonist, 17 h; ratio activity, negative = inhibition: at 62 µM (top of the series) unless noted
# Method in brief: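 Agonist L165041 (300 nM final) added with compound to PPARd-bla HEK293H UAS-bla reporter cells; 17 h incubation at 37 C. Read-out: LiveBLAzer FRET substrate, 2 h at room temperature, fluorescence intensity.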
# [7] = target: Peroxisome proliferator-activated receptor delta (Homo sapiens) (UniProt Q03181); experiment: qHTS assay to identify small molecule agonists of the peroxisome proliferator-activated receptor delta (PPARd) signaling pathway (AID 743212; calls by dose curve; note: potency is the fitted concentration of half-maximal effect); conditions: HEK293H PPARd-UAS-bla, beta-lactamase FRET ratio, 17 h; activation: at 62.6 µM (top of the series) unless noted
# Method in brief: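 Cells expressing a UAS-driven beta-lactamase reporter (PPARd-bla HEK293H) were given test compounds after a 5 h settle and kept at 37 C. Reporter activity was then measured as FRET fluorescence using LiveBLAzer B/G substrate.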
# [8] = qHTS assay to identify small molecule agonists of the vitamin D receptor (VDR) signaling pathway - cell viability counter screen (AID 743224); conditions: VDR-bla HEK293T viability, CellTiter-Glo luminescence, 16 h; activity change, negative = cytotoxicity: at 62.6 µM (top of the series); note: % is set by controls: 0 for no effect and ±100 for the full control effect; nearly all actives have a fitted effect of over 50% in size
# Method in brief: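 Counter screen run in the same wells as the VDR-bla reporter assay: CellTiter-Glo luminescence, 30 min at room temperature, after 16 h compound treatment at 37C of cells pre-plated for 4 h.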
# [9] = qHTS assay to identify small molecule agonists of the peroxisome proliferator-activated receptor delta (PPARd) signaling pathway - cell viability counter screen (AID 743211); conditions: PPARd-bla HEK293H viability, CellTiter-Glo luminescence, 17 h; activity change, negative = cytotoxicity: at 62.6 µM (top of the series); note: potency is the fitted concentration of half-maximal effect; nearly all actives have a fitted effect of over 55% in size
# Method in brief: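 Tox21 library compounds, delivered in DMSO, were incubated 17 h with PPARd-bla HEK293H cells; cytotoxicity was taken from CellTiter-Glo luminescence read 30 min after reagent addition.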
# [10] = qHTS assay to identify small molecule antagonists of the vitamin D receptor (VDR) signaling pathway - cell viability counter screen (AID 743225); conditions: VDR-bla HEK293T viability, CellTiter-Glo luminescence, 16 h; viability change, negative = cytotoxic: at 61 µM (top of the series) unless noted; note: potency is the fitted concentration of half-maximal effect; nearly all actives have a fitted effect of over 50% in size
# Method in brief: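 Same-well multiplex: following 16 h treatment of HEK 293T cells carrying a UAS-driven beta-lactamase reporter with compound and agonist (3 nM final), and a 2 h FRET substrate step, CellTiter-Glo was added and luminescence read after 30 min.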
# [11] = qHTS assay to identify small molecule agonists of the farnesoid-X-receptor (FXR) signaling pathway - cell viability counter screen (AID 743218); conditions: FXR-bla HEK293T viability, CellTiter-Glo luminescence, 16 h; viability change, negative = cytotoxic: at 62.6 µM (top of the series) unless noted; note: % is set by controls: 0 for no effect and ±100 for the full control effect; nearly all actives have a fitted effect of over 45% in size
# Method in brief: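 Viability counter screen in the same wells: CellTiter-Glo luminescence, 30 min room-temperature incubation, measured after the beta-lactamase read. Cells were GeneBLAzer FXR-UAS-bla HEK 293T, compound-treated 16 h at 37C.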
# [12] = target: Bile acid receptor (Homo sapiens) (UniProt Q96RI1); experiment: qHTS assay to identify small molecule agonists of the farnesoid-X-receptor (FXR) signaling pathway (AID 743220; active = well fitted activation curve with a large enough effect in the signal ratio in the repeat runs, not every such curve was filed as active; inconclusive = weak or mixed curves, or effect the other way; the % refers to the signal ratio; note: % is set by controls: 0 for no effect and ±100 for the full control effect); conditions: HEK293T FXR-UAS-bla, beta-lactamase FRET ratio, 16 h; activation: at 62.6 µM (top of the series)
# Method in brief: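 FXR-UAS-bla HEK 293T cells carrying a UAS-driven beta-lactamase reporter were plated for 5 h at 37C/5% CO2, then exposed to DMSO-dissolved Tox21 10K compounds for 16 h at 37C. A LiveBLAzer B/G FRET substrate was loaded for 2 h at room temperature before fluorescence reading.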
# [13] = activity change, negative = inhibition: at 61 µM (top of the series) unless noted
# Tags give direction and shape of the fitted curve or compound fluorescence and quenching.
# Sequence of UniProt Q03181 (Q03181 whole entry, looked up): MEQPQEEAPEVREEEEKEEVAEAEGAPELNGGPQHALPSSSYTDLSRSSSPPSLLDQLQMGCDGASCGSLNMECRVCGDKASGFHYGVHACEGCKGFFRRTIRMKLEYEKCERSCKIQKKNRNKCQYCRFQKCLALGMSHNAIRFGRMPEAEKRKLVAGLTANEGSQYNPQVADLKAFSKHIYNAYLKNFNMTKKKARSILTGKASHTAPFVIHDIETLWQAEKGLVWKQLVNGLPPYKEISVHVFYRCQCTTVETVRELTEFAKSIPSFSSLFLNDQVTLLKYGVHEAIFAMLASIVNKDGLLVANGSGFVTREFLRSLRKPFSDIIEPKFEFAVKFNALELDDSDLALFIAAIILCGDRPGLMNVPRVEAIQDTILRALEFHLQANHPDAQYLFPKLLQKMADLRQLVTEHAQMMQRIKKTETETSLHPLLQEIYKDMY
# Sequence of UniProt P11473 (P11473 whole entry, looked up): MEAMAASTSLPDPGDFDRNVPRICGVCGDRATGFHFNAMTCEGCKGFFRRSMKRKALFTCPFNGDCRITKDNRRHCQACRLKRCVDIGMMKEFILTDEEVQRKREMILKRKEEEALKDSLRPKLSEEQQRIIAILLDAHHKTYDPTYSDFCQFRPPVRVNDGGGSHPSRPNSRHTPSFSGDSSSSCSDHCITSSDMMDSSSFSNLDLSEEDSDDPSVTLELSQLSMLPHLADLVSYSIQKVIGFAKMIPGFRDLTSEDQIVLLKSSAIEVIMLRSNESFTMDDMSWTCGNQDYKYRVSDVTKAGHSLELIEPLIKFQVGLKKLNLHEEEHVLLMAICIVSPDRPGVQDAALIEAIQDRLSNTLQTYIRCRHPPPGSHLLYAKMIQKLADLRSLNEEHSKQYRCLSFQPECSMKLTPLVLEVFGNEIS
# Sequence of UniProt Q96RI1 (Q96RI1 whole entry, looked up): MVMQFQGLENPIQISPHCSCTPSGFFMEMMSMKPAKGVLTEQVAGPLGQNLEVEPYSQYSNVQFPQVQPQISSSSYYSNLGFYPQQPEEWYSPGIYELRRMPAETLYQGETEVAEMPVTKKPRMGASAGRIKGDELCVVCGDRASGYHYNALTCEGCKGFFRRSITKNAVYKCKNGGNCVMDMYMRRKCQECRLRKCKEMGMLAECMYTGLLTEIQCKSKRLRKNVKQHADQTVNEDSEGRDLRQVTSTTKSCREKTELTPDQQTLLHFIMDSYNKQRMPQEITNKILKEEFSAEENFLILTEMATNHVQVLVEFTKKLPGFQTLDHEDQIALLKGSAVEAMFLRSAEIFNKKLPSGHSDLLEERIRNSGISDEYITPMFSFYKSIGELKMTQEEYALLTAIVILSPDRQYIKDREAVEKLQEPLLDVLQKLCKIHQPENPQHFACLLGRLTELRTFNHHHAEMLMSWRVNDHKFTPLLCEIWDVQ
smiles,measurement,setting,value
CCCCOC(=O)CC#N,activation,[1],inconclusive: 3.68% [at 94.8 µM]
same,Potency,[2],"inconclusive: 64.6 µM [activator, single point]"
same,Potency,[3],active: 57.6 µM
same,Potency,[4]; [13],"inconclusive: 5.76 µM [activator, partial curve, poor fit]"
Cc1ccc(N(C)C)cc1,Potency,[1],inactive
same,Potency,[5],"inconclusive: 7.72 µM [cytotoxic, full curve]"
same,"ratio activity, negative = inhibition",[6],inconclusive: 2.46%
same,"activity change, negative = inhibition",[4]; [13],inconclusive: 34.5%
same,"activity change, negative = inhibition",[4]; at 61 µM (top of the series),inactive: -1.53%
C[C@@H]1O[C@@H](O[C@@H]2[C@@H](O)[C@H](OCCc3ccc(O)c(O)c3)O[C@H](CO[C@@H]3O[C@H](CO)[C@@H](O)[C@H](O)[C@H]3O)[C@H]2OC(=O)/C=C/c2ccc(O)c(O)c2)[C@H](O)[C@H](O)[C@H]1O,Potency,[1],"inconclusive: 0.0664 µM [falling, full curve]"
same,Potency,[2],inactive
same,Potency,[3],"inconclusive: 0.238 µM [cytotoxic, partial curve, poor fit]"
CC(C)(C)NCC(O)COc1ccc(NC(=O)NC2CCCCC2)cc1 (stereo not given),Potency,[1],inactive
same,Potency,[7],inactive
same,Potency,[8],inactive
CC1=CC[C@H](C(C)C)C=C1,Potency,[1],active: 54.5 µM
same,Potency,[9],"inconclusive: 12.3 µM [cytotoxic, full curve]"
same,Potency,[10],"inconclusive: 0.309 µM [cytotoxic, full curve, poor fit]"
CC1=C(C)C(=O)C(C(CCCCCC(=O)O)c2ccccc2)=C(C)C1=O (stereo not given),Potency,[1],inconclusive: 23.7 µM
same,Potency,[7],active: 29.8 µM
same,Potency,[3],inactive
same,Potency,[11],inactive
same,Potency,[12],inactive
same,"activity change, negative = inhibition",[4]; [13],inconclusive: 20.7%
same,Potency,[8],inactive

# Source: PubChem BioAssay (Tox21)
